From PubChem BioAssay AID493208 (National Center for Advancing Translational Sciences (NCATS), 2011)
About 340 (0.77%) of roughly 44,000 compounds were called active. Another 5% or so got no clear call; they are omitted. Calls follow the shape of the dose curve; as a rule, active = well fitted inhibition curve with a large enough effect; inconclusive = small, poorly fitted or top-dose-only effect; inactive = flat fitted curve, though single readings scatter. The list shows a part of the results.

Assay: Acumen qHTS Assay for Inhibitors of the mTORC1 Signaling Pathway in MEF (Tsc2-/-, p53-/-) Cells: Sytravon;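 also: plate controls were DMSO for no effect and rapamycin for full effect; nearly all actives have a fitted effect of over 50% in size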
Details: phospho-rpS6 immunofluorescence/PI, 24 h; series mostly up to 38.3 µM; activity change, negative = inhibition: at the top concentration
Summary of the method: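 Tsc2-/-, p53-/- mouse embryonic fibroblasts (empty-vector line) exposed to compound 24 hrs at 37 C, fixed, immunostained for phospho-rpS6 and counterstained with propidium iodide. Acumen laser scanning gives % positive cells from Alexa 488/PI ratio, thresholded using 7.5 nM rapamycin; PI count gives viability.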

| SMILES | activity change, negative = inhibition |
| --- | --- |
| COc1ccc(-c2cc(C(F)(F)F)n3nc(C(=O)Nc4cccc(Cl)c4C)cc3n2)cc1 | inactive: 11.5% |
| CCOc1ccc(OCC)c(NC(=O)CCc2c(C)nc3c(c2C)c(=O)n(C)c(=O)n3C)c1 | inactive: -10.6% |
| O=C(c1ccc2c(c1)N(Cc1ccccc1)C(=O)c1ccccc1S2(=O)=O)N1CCN(c2ccccn2)CC1 | inactive: 2.37% |
| CCSc1ncc(Cl)c(C(=O)Nc2c(C(=O)Nc3ccc(Cl)cc3)oc3ccccc23)n1 | inactive: 3.3% |
| CCOc1ccccc1CNC(=O)c1cc(-c2ccc(OC)cc2)nc2ccc(C(C)C)cc12 | inactive: -1.4% |
| COc1cc(C2c3c(oc4ccccc4c3=O)C(=O)N2c2nnc(C(C)C)s2)cc(OC)c1OC (stereo not drawn) | inactive: -11.7% |
| COc1ccc(CNC(=O)c2ccc3c(c2)nc2n3CCCCC2)c(OC)c1 | inactive: 18.8% |
| CCOC(=O)c1cccc(NS(=O)(=O)c2cn(C)c(C)n2)c1 | inactive: -8.72% |
| COc1ccc(/C=C/c2noc(-c3ccccc3O)n2)cc1OC | inactive: 0.607% |
| Cc1ccc(Cn2ccn(Cc3ccccc3C)c(=O)c2=O)cc1 | inactive: -14.9% |
| COC(=O)c1ccccc1NC(=O)Cn1c(=O)n(-c2ccc(Cl)cc2)c(=O)c2c(C)c(C)sc21 | inactive: 0.637% |
| COc1cccc(-c2cc(C(=O)Nc3ccc(C)cc3)[nH]n2)c1 | inactive: 3.23% |
| Cc1cc(C)n(-c2nc3ccccc3nc2Nc2cc(C(=O)O)ccc2C)n1 | inactive: -1.17% |
| Cc1cc(C)cc(-n2nnc(-c3nc(-c4ccccc4F)no3)c2C)c1 | inactive: -0.896% |
| Cc1ccc(CN2CCN(CC(=O)NCc3ccccc3Cl)C2=O)cc1 | inactive: -1.35% |
| Cc1ccc(NC(=O)C(=O)NCC(c2cccnc2)N2CCc3ccccc32)cc1Cl (stereo not drawn) | inactive: -9.61% |
| COc1ccc(S(=O)(=O)N(CC(=O)NCc2ccc(C)cc2)c2ccc(Cl)cc2)cc1 | inactive: -3.31% |
| CCOc1ccccc1NC(=O)CN1C(=O)C2(SCC(=O)N2c2cccc(F)c2)c2ccccc21 (stereo not drawn) | inactive: 2.8% |
| Cc1c(Cl)cccc1NC(=O)CCn1nc(C)c2c(C)n(-c3ccccc3)nc2c1=O | inactive: 0.469% |
| CCOc1ccc(C(=O)N2CCCCC2CCN2CCOCC2)cc1 (stereo not drawn) | inactive: 2.26% |
| COc1ccc(NC(=O)c2sc3nc(C)c(C(=O)Nc4ccc(Cl)cc4)c(-c4ccc(Br)cc4)c3c2N)cc1 | inactive: -4.47% |
| COC(=O)c1ccccc1NC(=O)Cn1nnc2sc(-c3ccccc3)cc2c1=O | inactive: -0.237% |
| CCc1ccc(-c2nn(CC(=O)NC3CCCC3)c3c2cnc2ccc(F)cc23)cc1 | inactive: 0.453% |
| CCOc1ccccc1NC(=O)NCCn1c(=O)oc2ccc(C)cc21 | inactive: -0.787% |

| SMILES | activity change, negative = inhibition |
| --- | --- |
| COc1ccc(-c2nc(-c3ccccc3)c(-c3ccc(O)cc3)[nH]2)cc1 | inactive: -14.2% |
| COc1ccccc1C(=O)NCCn1cc(SCc2ccccc2Cl)c2ccccc21 | inactive: -0.872% |
| O=C(/C=C/c1ccc(F)cc1)Nc1nc2n(n1)C(c1ccc(Cl)cc1)C=C(c1ccccc1)N2 (stereo not drawn) | inactive: -2.6% |
| COc1ccc(OC)c(CNC(=O)CCn2c(=O)c3cccn3c3ccc(F)cc32)c1 | inactive: 6.98% |
| Cc1ccc2sc(N3CCN(C(=O)CCS(=O)(=O)c4ccc(F)cc4)CC3)nc2c1C | inactive: -7.13% |
| Cc1noc(/C=C/c2ccco2)c1S(=O)(=O)N1CCC(C(=O)Nc2ccc(F)c(Cl)c2)CC1 | inactive: -11% |
| COc1ccc(-n2ncc3c(NCCC4=CCCCC4)ncnc32)cc1 | inactive: 8.14% |
| Cc1ccccc1-c1nc(CS(=O)(=O)CC(=O)NCc2cccc(Cl)c2)c(C)o1 | inactive: -9.1% |
| CCC1=Nc2cc(C(=O)NC3CCCC3)ccc2Sc2ccc(Br)cc21 | inactive: -25.8% |
| Cc1ccc(N2CC(C(=O)Nc3ccc(Br)cc3)CC2=O)cc1 (stereo not drawn) | inactive: -3.57% |
| COc1ccc(C(=O)n2nc(-c3ccco3)nc2NCc2cccs2)cc1 | inactive: 2.49% |
| C=Cc1ccc(CN2C(=O)N(c3cccc(Cl)c3)S(=O)(=O)c3ccccc32)cc1 | inactive: 0.0426% |
| Cc1ccc2c(=O)c(C(=O)c3cccc(Cl)c3)cn(CC(=O)NCc3ccc(F)cc3)c2n1 | inactive: -15% |
| O=C(NCc1cccc(Cl)c1)C(=O)Nc1ccc2nc3n(c(=O)c2c1)CCCCC3 | inactive: -8.05% |
| CCCCN1CCCc2cc(CN(CCCN3CCOCC3)C(=O)Nc3ccc(OCC)cc3)ccc21 | inactive: -5.74% |
| COc1cccc(CN2CCc3nc(SCC(=O)Nc4ccccc4)[nH]c(=O)c3C2)c1 | inactive: -0.098% |
| COc1ccc(C)cc1Nc1c2c(nc3nc(-c4cccs4)nn13)CCCC2 | inactive: -11.6% |
| CCN(CC)S(=O)(=O)c1ccc2c(c1)N(CC(=O)N1CCN(c3ccccc3F)CC1)C(=O)CO2 | inactive: -2.69% |
| COc1cc(Nc2nc3ccccc3c3nnc(C)n23)cc(OC)c1 | inactive: 0.469% |
| Cc1ccc(NC(=O)N2CCc3cc(S(=O)(=O)N4CCC(C)CC4)ccc32)cc1C | inactive: 3.9% |
| CC1Cc2cc(S(=O)(=O)NCc3ccccc3Cl)ccc2N1C(=O)C1CCC1 (stereo not drawn) | inactive: -16.3% |
| CCOC(=O)c1ccc(Nc2ncnc3c2cnn3-c2cccc(Cl)c2)cc1 | inactive: 14.5% |
| CCN(C(=O)c1cc2c(s1)-c1ccccc1OC2)c1cc(Cl)ccc1OC | inactive: -9.28% |
| Cc1ccccc1NS(=O)(=O)c1nnc(NC(=O)c2ccccc2C)s1 | inactive: 7.42% |
